Results taken from the antibiotic and cytotoxicity screens of Wong et al. (2023).
The list shows a part of the results.

Experiments:
HSkMC = human skeletal muscle cells; assay: cytotoxicity call (relative viability < 0.9); conditions: 10 µM
HepG2 = assay: cytotoxicity call (relative viability < 0.9); conditions: 10 µM
S. aureus RN4220 = assay: growth inhibition call (relative growth <= 0.2); conditions: 50 µM

C[C@@H]1CN([C@H](C)CO)C(=O)Cc2cc(NS(=O)(=O)c3cccs3)ccc2O[C@H]1CN(C)S(=O)(=O)c1cn(C)cn1
cytotoxicity call (HSkMC): inactive | cytotoxicity call (HepG2): inactive | growth inhibition call (S. aureus RN4220): inactive

C[C@H]1CCCCO[C@H](CN(C)S(=O)(=O)c2ccccc2)[C@@H](C)CN([C@@H](C)CO)C(=O)c2cc(NS(C)(=O)=O)ccc2O1
cytotoxicity call (HSkMC): inactive | cytotoxicity call (HepG2): inactive | growth inhibition call (S. aureus RN4220): inactive

C[C@H]1CC=CC[C@@H](c2ccc3c(c2)OCO3)NC(=O)[C@H](Cc2ccccc2)N(C)C(=O)c2ccccc2O1
cytotoxicity call (HSkMC): inactive | cytotoxicity call (HepG2): inactive | growth inhibition call (S. aureus RN4220): inactive

O=C(NCCN1CCOCC1)c1ccccn1
cytotoxicity call (HSkMC): inactive | cytotoxicity call (HepG2): inactive | growth inhibition call (S. aureus RN4220): inactive

C[C@H](CO)N1C[C@H](C)[C@H](CN(C)S(=O)(=O)c2cn(C)cn2)Oc2ccc(NC(=O)C3CC3)cc2C1=O
cytotoxicity call (HSkMC): inactive | cytotoxicity call (HepG2): inactive | growth inhibition call (S. aureus RN4220): inactive

C[C@@H]1CN([C@H](C)CO)C(=O)c2cc(NC(=O)Nc3ccc(F)cc3)ccc2O[C@@H](C)CCCCO[C@H]1CN(C)C(=O)c1ccccc1
cytotoxicity call (HSkMC): inactive | cytotoxicity call (HepG2): inactive | growth inhibition call (S. aureus RN4220): inactive

O=C(C[C@@H]1CC[C@@H]2[C@H](COC[C@@H](O)CN2S(=O)(=O)c2ccc(Cl)cc2)O1)NCc1ccncn1
cytotoxicity call (HSkMC): inactive | cytotoxicity call (HepG2): inactive | growth inhibition call (S. aureus RN4220): inactive

C[C@H](CO)N1C[C@H](C)[C@H](CN(C)S(C)(=O)=O)Oc2c(cccc2N(C)C)C1=O
cytotoxicity call (HSkMC): inactive | cytotoxicity call (HepG2): inactive | growth inhibition call (S. aureus RN4220): inactive

O=C(NCCCN1CCOCC1)[C@H]1[C@H](CO)[C@H]2Cn3c(cccc3=O)[C@@H]1N2C(=O)C1CCCC1
cytotoxicity call (HSkMC): inactive | cytotoxicity call (HepG2): inactive | growth inhibition call (S. aureus RN4220): inactive

COc1ccc2c(=O)c(OC)c(-c3ccccc3)oc2c1
cytotoxicity call (HSkMC): inactive | cytotoxicity call (HepG2): inactive | growth inhibition call (S. aureus RN4220): inactive

C[C@@H]1CN([C@H](C)CO)C(=O)Cc2cc(NC(=O)C3CC3)ccc2O[C@H]1CN(C)S(=O)(=O)c1cccs1
cytotoxicity call (HSkMC): inactive | cytotoxicity call (HepG2): inactive | growth inhibition call (S. aureus RN4220): inactive

COc1ccc(S(=O)(=O)N(C)C[C@H]2Oc3c(NC(=O)c4cnccn4)cccc3C(=O)N([C@H](C)CO)C[C@@H]2C)cc1
cytotoxicity call (HSkMC): inactive | cytotoxicity call (HepG2): inactive | growth inhibition call (S. aureus RN4220): inactive

C[C@@H]1CN([C@H](C)CO)C(=O)c2cc(NC(=O)NC3CCCCC3)ccc2O[C@@H]1CN(C)C(=O)Nc1cccc2ccccc12
cytotoxicity call (HSkMC): inactive | cytotoxicity call (HepG2): inactive | growth inhibition call (S. aureus RN4220): inactive

O=C(O)Cn1c(=O)n(CC(=O)O)c2ccccc21
cytotoxicity call (HSkMC): inactive | cytotoxicity call (HepG2): inactive | growth inhibition call (S. aureus RN4220): inactive

Oc1ccc([C@@H]2C=CCC2)cc1
cytotoxicity call (HSkMC): inactive | cytotoxicity call (HepG2): inactive | growth inhibition call (S. aureus RN4220): inactive

CS(=O)(=O)Nc1ccc2oc3c(OC(F)F)ccc(C(=O)Nc4c(Cl)cncc4Cl)c3c2c1
cytotoxicity call (HSkMC): inactive | cytotoxicity call (HepG2): inactive | growth inhibition call (S. aureus RN4220): inactive

COc1ccc(NC(=O)N(C)C[C@@H]2Oc3c(NC(=O)Nc4cccc5ccccc45)cccc3C(=O)N([C@@H](C)CO)C[C@@H]2C)cc1
cytotoxicity call (HSkMC): inactive | cytotoxicity call (HepG2): inactive | growth inhibition call (S. aureus RN4220): inactive

C[C@@H]1CN([C@H](C)CO)C(=O)CCCn2nncc2CO[C@@H]1CN(C)C(=O)Nc1cccc(C(F)(F)F)c1
cytotoxicity call (HSkMC): inactive | cytotoxicity call (HepG2): inactive | growth inhibition call (S. aureus RN4220): active

CN1CCC[C@H]1CO
cytotoxicity call (HSkMC): inactive | cytotoxicity call (HepG2): inactive | growth inhibition call (S. aureus RN4220): inactive

CCn1ncc(Br)c1CN
cytotoxicity call (HSkMC): inactive | cytotoxicity call (HepG2): inactive | growth inhibition call (S. aureus RN4220): inactive

CC(C)NC(=O)N(C)C[C@H]1Oc2ccc(NS(=O)(=O)c3ccc(F)cc3)cc2C(=O)N([C@@H](C)CO)C[C@@H]1C
cytotoxicity call (HSkMC): inactive | cytotoxicity call (HepG2): inactive | growth inhibition call (S. aureus RN4220): inactive

Cc1cccnc1[C@@H](NC(=O)C1CCN(CCOc2ccc(Cl)cc2Cl)CC1)c1ccc(F)cc1
cytotoxicity call (HSkMC): inactive | cytotoxicity call (HepG2): inactive | growth inhibition call (S. aureus RN4220): active

C[C@@H]1CN([C@H](C)CO)C(=O)c2cc(C#Cc3cccnc3)cnc2O[C@@H]1CN(C)S(C)(=O)=O
cytotoxicity call (HSkMC): inactive | cytotoxicity call (HepG2): inactive | growth inhibition call (S. aureus RN4220): inactive

COc1ccc(cc1)CN1C[C@]2(CCN(CC2)C(=O)Nc2cccc(c2)F)c2c([nH]c3cc(ccc23)OC)[C@H]1CO
cytotoxicity call (HSkMC): inactive | cytotoxicity call (HepG2): inactive | growth inhibition call (S. aureus RN4220): inactive

Cn1cnc(S(=O)(=O)N2C[C@H](O)COC[C@H]3O[C@@H](CC(=O)NC4Cc5ccccc5C4)CC[C@@H]32)c1
cytotoxicity call (HSkMC): inactive | cytotoxicity call (HepG2): inactive | growth inhibition call (S. aureus RN4220): inactive

C[C@@H]1CN([C@H](C)CO)C(=O)Cc2cc(NS(=O)(=O)c3ccccc3)ccc2O[C@@H]1CN(C)S(=O)(=O)c1cn(C)cn1
cytotoxicity call (HSkMC): inactive | cytotoxicity call (HepG2): inactive | growth inhibition call (S. aureus RN4220): inactive

C[C@H](CO)N1C[C@H](C)[C@H](CN(C)CC2CC2)Oc2c(NS(=O)(=O)c3ccc(F)cc3)cccc2C1=O
cytotoxicity call (HSkMC): inactive | cytotoxicity call (HepG2): inactive | growth inhibition call (S. aureus RN4220): inactive

Cc1ccc(S(=O)(=O)N(C)C[C@H]2Oc3ccc(NS(=O)(=O)c4cn(C)cn4)cc3C(=O)N([C@H](C)CO)C[C@H]2C)cc1
cytotoxicity call (HSkMC): inactive | cytotoxicity call (HepG2): inactive | growth inhibition call (S. aureus RN4220): inactive
